Laboratory results: publication PMC4336329 (PLoS ONE, 2015)
Screen size: about 310,000 compounds; about 14,000 (4.5%) showed an effect of 50% or more. The effect is printed as a negative number. The list shows a part of the results.

Each compound was assayed against human ether-à-go-go-related gene (hERG) potassium channel (human, UniProt Q12809) (assay: primary screen, population patch clamp on CHO cells stably expressing hERG).
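Also: peak tail current of the secondary pulse compared with the same well before compound.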

human ether-à-go-go-related gene (hERG) potassium channel, sequence (Q12809 whole entry, looked up): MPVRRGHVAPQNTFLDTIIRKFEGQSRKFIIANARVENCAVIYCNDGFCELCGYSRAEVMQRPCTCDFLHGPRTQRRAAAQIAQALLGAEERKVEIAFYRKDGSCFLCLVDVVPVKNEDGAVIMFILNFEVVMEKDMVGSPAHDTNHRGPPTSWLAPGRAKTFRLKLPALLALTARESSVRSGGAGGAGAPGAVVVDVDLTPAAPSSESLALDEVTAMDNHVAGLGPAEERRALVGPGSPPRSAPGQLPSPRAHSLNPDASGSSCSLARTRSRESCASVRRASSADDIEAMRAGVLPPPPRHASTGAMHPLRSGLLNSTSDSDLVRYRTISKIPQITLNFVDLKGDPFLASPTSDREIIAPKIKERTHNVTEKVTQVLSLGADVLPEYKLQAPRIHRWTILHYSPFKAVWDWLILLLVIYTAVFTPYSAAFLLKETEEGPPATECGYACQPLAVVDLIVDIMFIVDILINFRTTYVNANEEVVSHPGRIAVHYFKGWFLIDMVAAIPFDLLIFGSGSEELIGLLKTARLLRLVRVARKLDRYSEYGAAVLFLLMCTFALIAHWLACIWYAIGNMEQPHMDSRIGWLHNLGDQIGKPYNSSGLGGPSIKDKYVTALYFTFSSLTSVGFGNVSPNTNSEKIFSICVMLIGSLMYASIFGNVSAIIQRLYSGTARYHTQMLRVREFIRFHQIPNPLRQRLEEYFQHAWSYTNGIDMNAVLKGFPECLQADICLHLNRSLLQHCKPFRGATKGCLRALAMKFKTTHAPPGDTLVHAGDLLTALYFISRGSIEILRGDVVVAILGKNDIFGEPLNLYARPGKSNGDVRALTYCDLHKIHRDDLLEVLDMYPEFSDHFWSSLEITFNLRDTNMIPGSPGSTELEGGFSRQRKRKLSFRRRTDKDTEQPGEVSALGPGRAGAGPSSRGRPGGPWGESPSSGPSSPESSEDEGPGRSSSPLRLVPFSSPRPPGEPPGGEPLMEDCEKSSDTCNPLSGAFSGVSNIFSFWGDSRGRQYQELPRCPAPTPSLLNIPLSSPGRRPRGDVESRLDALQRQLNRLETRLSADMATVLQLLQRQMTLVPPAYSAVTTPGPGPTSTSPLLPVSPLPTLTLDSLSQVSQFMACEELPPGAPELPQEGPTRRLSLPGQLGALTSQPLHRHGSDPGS

SMILES | hERG current change (%, negative = inhibition) at 10uM [%]
Nc1ncnc2c1cnn2C1CCCCC1 | 14.4
CNC(=O)COc1ccc(C=O)cc1OC | 6.75
N#Cc1ccc(-c2ccc(Cl)cc2)nc1SCC(=O)c1cccc(Cl)c1 | 28.9
Cc1ccc2sc(N(CCCN(C)C)C(=O)c3nc4ccccc4s3)nc2c1C.Cl | 3.59
CCN(CC)C(=O)CSC(=Nc1ccccc1F)NC#N | -6.3
CC(Oc1cccc(Cl)c1)C(=O)Nc1cc(Cl)ccc1N1CCOCC1 (stereo not drawn) | -8.33
CC(=O)N(C)CC#CCN1CCCC(CO)C1 (stereo not drawn) | 0.563
O=C1C2CC=CCC2C(=O)N1c1ccc(N2CCN(c3ccccn3)CC2)c([N+](=O)[O-])c1 (stereo not drawn) | 7.61
Oc1cccc(/C=N/Nc2nn3cnnc3c3ccccc23)c1 | 9.42
COc1ccccc1N(CC(=O)NC1CCCC1)C(=O)c1cnn(C(C)C)c1 | 2.92
O=C(N/N=C1\CCCc2c1[nH]c1ccc([N+](=O)[O-])cc21)c1ccncc1 | -37.5
COC(=O)c1sc(NC(=O)CSc2nc3nc(C)cc(C)n3n2)c(C(=O)OC)c1C | -25.2
CCOC(=O)C1CCCN(C2=NC(=O)/C(=C/c3ccc(OC)cc3)S2)C1 (stereo not drawn) | -20.1
CC(=O)c1ccc(NC(=O)C(C)Sc2ccccn2)cc1 (stereo not drawn) | 16.2
COc1ccc2occ(C(=O)c3ccc(N=C(C)N(C)C)cc3)c2c1 | -58.8
O=C(CN1C(=O)S/C(=C/C=C/c2ccccc2)C1=O)Nc1ccc(C(=O)O)cc1 | 10.7
Cc1ccc(-n2c(CCc3nc4ccccc4[nH]3)n[nH]c2=S)cc1 | 22.3
Cc1ccc(CNC(=O)CC(C)S(=O)(=O)c2cc3c(cc2C)NC(=O)CO3)cc1 (stereo not drawn) | -16.1
CCOCc1nnc(NC(=O)c2c(OC)cccc2OC)s1 | 14.7
CCN1CCN(c2ncnc3c2cnn3-c2ccc(C)cc2C)CC1 | -4.25
Cc1cccc(N=Nc2cn[nH]c2-c2ccco2)c1 | 5.4
Fc1ccc(CCNC(=S)Nc2ccc(F)cc2)cc1 | -13.2

SMILES | hERG current change (%, negative = inhibition) at 10uM [%]
C/C(=N/NC(=O)c1cccs1)c1cccc(NC(=O)C2CC2)c1 | 1.63
CC#CCN1c2ccccc2[C@]23C[C@@H](C(=O)OC)N=C2NC(C(=O)OC)=C(C(=O)OC)[C@H]13 | -6.37
COc1ccc(N(CC(=O)Nc2ccc3c(c2)OCO3)S(=O)(=O)c2ccc(F)cc2)cc1 | 14.1
CC(=O)c1ccc(S(=O)(=O)Nc2cc3c(cc2C(C)=O)OCO3)cc1 | 21.2
O=c1cc(-c2cccc(Cl)c2)oc2cccc(O)c12 | -12.8
CC(=O)Nc1cccc2c1C(=O)NC2=O | 1.34
O=C(COC(=O)c1ccc(C(F)(F)F)cc1)NC(=O)NC1CCCC1 | 8.39
O=C(CCC(=O)c1ccc(Cl)cc1)NCc1ccccc1 | 49
S=C(NCc1ccccc1)NCc1cccc(Cl)c1 | -11.4
CN(C)C(=O)CSc1nnc(CCNC(=O)OC(C)(C)C)o1 | -21.4
O=C(NCc1ccco1)c1cc(-c2ccccc2)on1 | 1.26
CCC(=O)N1CCCc2cc(S(=O)(=O)N3CCN(c4ccccn4)CC3)ccc21 | -27.7
Cc1ccc(C(=O)CCC(=O)Nc2cccnc2)cc1C | 12.4
Cc1cccc(C2c3[nH]c4ccccc4c3CCN2C(=O)c2cc(CC(C)C)[nH]c(=O)n2)n1 (stereo not drawn) | -23.1
O=C(c1ccc(Cl)c(S(=O)(=O)NCc2ccco2)c1)N1CCN(c2ccc(F)cc2)CC1 | -70.3
Nc1c(Cl)c(Cl)nc(C(=O)OCC(=O)N2CCCC2=O)c1Cl | -22.5
COc1ccc(C2CC(=O)c3c(ccc4ccccc34)N2)cc1OC (stereo not drawn) | -2.34
Brc1cccc(OCCN2CCOCC2)c1.O=C(O)C(=O)O | 19
Cc1ccc(S(=O)(=O)N(Cc2cccc(Cl)c2)C(=O)N2CCN(C)CC2)cc1 | 9.85
O=C(O)c1cccc(S(=O)(=O)N2CCCC(c3nc4c(nnn4Cc4ccccc4Cl)c(=O)[nH]3)C2)c1 (stereo not drawn) | 15.8
CCc1nnc(NC(=O)C(NC(=O)c2ccccc2Cl)C(C)C)s1 (stereo not drawn) | 0.192
COc1ccc(CNC(=O)C(C#N)c2nc3ccccc3nc2N2CCCC2)cc1 (stereo not drawn) | 10.1

SMILES | hERG current change (%, negative = inhibition) at 10uM [%]
COC(=O)CN1C(=O)[C@H]2[C@@H](C3CC3)N3C(=O)CN(Cc4ccccn4)C(=O)[C@@]3(Cc3ccccc3)[C@H]2C1=O | -1.65
Cc1ccc(C)c(N2CCN(C(=O)C34CC5CC(C3)CC(n3nnc(C)n3)(C5)C4)CC2)c1 | -16.8
CCOc1ccc(S(=O)(=O)N2CCNC(=O)C2)cc1 | 8.04
CCOc1ccc2oc(C(=O)Nc3ccc4c(c3)OCO4)c(C)c2c1 | 13.9
Cc1[nH]c2ccc(C(=O)NCCCN3CCN(C)CC3)cc2c1C | 17.7
CCCCOc1ccc(C(=O)NCC(=O)NCC(c2ccc(F)cc2)N2CCOCC2)cc1 (stereo not drawn) | -16.5
CCOC(=O)C1(CC)NC(c2ccc(N(C)C)cc2)C2C(=O)N(C)C(=O)C21 (stereo not drawn) | 3.93
CCC(C)(C)NC(=O)CN(Cc1ccc(OC)cc1)C(=O)CCC(=O)Nc1nccs1 | -4.32
CN(C)/C=C/C(=O)c1ccc(-c2ccc(Cl)cc2Cl)o1 | -9.68
N#CCCN1CCN(C(=O)c2c(N)no[n+]2[O-])CC1 | 7.19
CCc1ccc(N2CCN(C(=O)N3CCOCC3)CC2)cc1 | 29.1
Cc1ccc(-n2c3c(c(=O)[nH]c2=O)C(NS(=O)(=O)c2ccc(C)cc2)(C(F)(F)F)C(=O)N3)cc1 (stereo not drawn) | -5
Cc1cc(O)cc2c1C(=O)/C(=C/c1ccco1)O2 | 20.1
Cc1oc2c(C)c3oc(=O)c(CCC(=O)NCCCCCC(=O)O)c(C)c3cc2c1C | 34.5
Cc1ccc2nc(N(CCCN(C)C)C(=O)c3ccc4ncsc4c3)sc2c1 | -61.4
COc1ccc(N2CCN(C(=O)CSc3nnc4c(C)cc5ccc(C)c(C)c5n34)CC2)cc1 | -22.6
O=S(=O)(NCCc1csc(-c2ccccc2)n1)c1ccc2c(c1)OCCO2 | -6.59
CCC(=O)NC(c1ccccc1OC)c1ccc2cccnc2c1O (stereo not drawn) | -23
COc1ccc(C(=O)N/C(=C\c2ccccc2)C(=O)Nc2ccc(C(=O)NCC(=O)O)cc2)cc1 | 3.48
Cc1c(Br)c([N+](=O)[O-])nn1CC(=O)NCC1CCCO1 (stereo not drawn) | 43.6
COc1cccc(C2CC(c3cccs3)=NN2C(=O)c2ccco2)c1O (stereo not drawn) | -10.7
Cc1cc(OC(C)C(=O)NCC2CCC(C(=O)O)CC2)c2c3c(c(=O)oc2c1)CCC3 (stereo not drawn) | 5.94

SMILES | hERG current change (%, negative = inhibition) at 10uM [%]
COc1ccc(OC)c2[nH]c(=O)c(CCNC(=O)C(C)(C)C)cc12 | 6.42
CC1(C)Oc2ccc3ccc(=O)oc3c2[C@@H](O)[C@@H]1O | 25.7
O=C(O)C1C2C=CC(C2)C1C(=O)NCc1cccs1 (stereo not drawn) | 9.44
COc1cc(/C=C/C(=O)OCC(=O)Nc2ccc(S(=O)(=O)N3CCCC3)cc2)ccc1O | 1.5
COc1ccccc1NC(=O)CN1C(=O)C(C)Oc2ccccc21 (stereo not drawn) | 0.559
COc1ccccc1CNC(=O)COC(=O)CNS(=O)(=O)c1ccc(NC(C)=O)cc1 | -0.768
Cc1cc(NC(=O)COc2cccnc2[N+](=O)[O-])no1 | 8.27
COc1ccc(CN2C(=O)CC(Cc3cc(C)cc(C)c3)C2=O)cc1OC (stereo not drawn) | -9.3
Cc1c(NC(=O)CSc2ncnc3ccccc23)c(=O)n(-c2ccccc2)n1C | -38.8
Cc1ccc(CNC(=O)CCCC(=O)Nc2cc(C)on2)cc1 | 7.73
CNc1cc(CSC)nc(SCc2ccc(Cl)cc2Cl)n1 | 18.5
CCOC(=O)[C@@H]1[C@H]2COc3ccccc3[C@@H]2N2C(=O)N(c3ccc(F)cc3)C(=O)[C@@]12C | 3.27
O=C(c1ccco1)N1CCN(C(=O)c2cccs2)CC1 | 4.71
CCn1c(-c2ccc3ncccc3c2)n[nH]c1=S | -2.22
Clc1ccc(Cn2ncc3c(NCCN4CCOCC4)ncnc32)cc1 | -11.9
CC(C)Sc1ccc(C(=O)Nc2ccc(F)cc2F)cn1 | 13.6
CCN(CC)C(=O)CSc1nnc([C@@H](N)Cc2ccccc2)o1.Cl | -0.884
Cc1ccc2c(CC(=O)NCc3ccc4c(c3)OCO4)coc2c1 | 0.945
Cc1ccccc1-n1c(=O)cc(N2CC(C)OC(C)C2)[nH]c1=O (stereo not drawn) | 1.65
CC(=O)N1CCN=C1SCc1ccc(F)cc1 | 6.28
CCOC(=O)C1CCCN(C(=O)CCn2nc(-c3ccccc3)ccc2=O)C1 (stereo not drawn) | -41.5
